Results published in PubChem BioAssay AID624296 (National Center for Advancing Translational Sciences (NCATS), 2012).
Several values for one entry are separate records, joined by “and”; a condition that tells them apart may be missing. Equal values may be shown once. Among all 350,000 compounds or so, about 9,900 (2.8%) were called active. This list was built around the results that the source calls inconclusive (neither active nor inactive); the mix of calls is not that of the screen. Calls follow the shape of the dose curve; as a rule, active = well fitted activation curve with a large enough effect; inconclusive = small, poorly fitted or top-dose-only effect; inactive = no such curve, though single readings can be large or run the other way. A potency beside an inconclusive call is a rough fit, not a confirmed value.

Assay: A quantitative high throughput screen for small molecules that induce DNA re-replication in MCF 10a normal breast cells. Also: nearly all actives have a fitted effect of over 50% in size. As to activity, positive = re-replication: % of control where 0% means no effect.
Details: MCF 10A DNA re-replication, Hoechst nuclear intensity, 48 h; series mostly up to 46.1 µM; activity, positive = re-replication: at the top concentration
Potency is read from the fitted curve at half-maximal effect; tags tell the direction and shape of the fitted curve.

Q: Which Potency does the source give for `O=C(c1c[nH]c(C(=O)N2CCN(Cc3ccccc3)CC2)c1)C1CCCCC1` here?
A: The Potency was inconclusive: 6.51 µM [activator, single point].

Q: For `Cn1c(CCNC(=O)c2ccco2)nc2cc(NC(=O)c3ccccc3)ccc21`, which “activity, positive = re-replication” value is on record?
A: Its value is inactive: -2.91%.

Q: With `COc1cc(OC)c2c(-c3cccc(-c4ccc(C(C)=O)cc4)c3)cc(=O)oc2c1` as the compound, how does the Potency read?
A: Its Potency is active: 0.651 µM.

Q: Which Potency does the source give for `C/C(=N\NC(=O)c1c(Cl)c(C)nn1C)c1ccc(NC(=O)COc2ccc(Cl)cc2C)cc1` here?
A: The Potency was active: 20.6 µM.

Q: For `Fc1ccccc1-c1nc(NCCCN2CCOCC2)c2ccccc2n1`, which Potency is on record?
A: The Potency was inconclusive: 32.6 µM [activator, partial curve, poor fit].

Q: With `O=C(CN1C(=O)NC(c2ccccc2)(c2ccccc2)C1=O)NC1CCS(=O)(=O)C1` (stereo not drawn) as the compound, how does the Potency read?
A: Its Potency is inconclusive: 0.731 µM [activator, partial curve, poor fit].

Q: Which Potency does the source give for `Nc1nonc1-c1nc2ccccc2n1CC(=O)O` here?
A: The Potency was inconclusive: 6.51 µM [activator, single point].

Q: Which “activity, positive = re-replication” value does the source give for `CCCSc1nn2c(=O)c3ccccc3nc2s1` here?
A: Its value is inactive: 0.302%.

Q: For `COc1ccc(/C=C2\Oc3cc(OCC(=O)N4CC(O)C[C@H]4C(=O)O)ccc3C2=O)c(OC)c1OC` (stereo partly drawn), which Potency is on record?
A: Its Potency is inconclusive: 32.6 µM [activator, partial curve, poor fit].

Q: With `COc1ccc(NC(=O)COC(=O)Cc2ccc(Br)cc2)cc1` as the compound, how does the Potency read?
A: The Potency was inconclusive: 32.6 µM [activator, single point].

Q: For `O=C(CN1CCOCC1)N1CCN(c2nnc(-c3ccccc3)c3ccccc23)CC1`, which “activity, positive = re-replication” value is on record?
A: The value was inactive: -1.62%.

Q: For `O=C(CCNC(=O)c1ccc(Br)cc1)Nc1nc2ccccc2[nH]1`, which Potency is on record?
A: The Potency was inconclusive: 29.1 µM [activator, single point].

Q: Which “activity, positive = re-replication” value does the source give for `CCN1CCN(C(=S)NC(=O)c2cccs2)CC1` here?
A: Its value is inactive: 0.202%.

Q: With `O=C(CC1SC(=Nc2cccc3ccccc23)N(Cc2ccccn2)C1=O)Nc1ccccc1Br` (stereo not drawn) as the compound, how does the Potency read?
A: The Potency was “inactive and inconclusive: 4.11 µM [activator, full curve, poor fit]”.

Q: With `COc1ccc(C(=O)/C=C/C(=O)N(CC(=O)NC2CCCCC2)Cc2ccc(F)cc2)c(O)c1` as the compound, how does the Potency read?
A: The Potency was inconclusive: 20.6 µM [activator, single point].

Q: Which Potency does the source give for `S=C(NCc1ccco1)Nc1ccc(Oc2ccc(Cl)cc2)cc1` here?
A: Its Potency is active: 7.31 µM.

Q: For `COc1ccc(C(=O)NC2CCCc3c2cnn3-c2cccc(C)c2C)o1` (stereo not drawn), which Potency is on record?
A: The Potency was inconclusive: 32.6 µM [activator, partial curve, poor fit].

Q: With `Cc1cc(C)c(S(=O)(=O)NCCc2cc3ccc(C)c(C)c3[nH]c2=O)c(C)c1` as the compound, how does the Potency read?
A: Its Potency is inconclusive: 23.1 µM [activator, single point].

Q: Which “activity, positive = re-replication” value does the source give for `CCOC(=O)c1nn(-c2ccc(F)cc2)c(=O)cc1OCC(=O)Nc1ccc(F)c(F)c1` here?
A: Its value is inactive: 31.8%.

Q: Which Potency does the source give for `CCOC(=O)c1ccccc1NC(=O)c1ccccc1SC` here?
A: Its Potency is inconclusive: 7.31 µM [activator, partial curve, poor fit].

Q: With `COc1ccc(NC(=O)c2csc3c2CCCCC3)c(OC)c1` as the compound, how does the Potency read?
A: Its Potency is inconclusive: 13 µM [activator, partial curve, poor fit].

Q: Which “activity, positive = re-replication” value does the source give for `COCC(C)NC(=O)c1ccc2c(c1)S(=O)(=O)c1ccccc1C2=O` (stereo not drawn) here?
A: Its value is inactive: 8.52%.

Q: Which Potency does the source give for `Cc1ccc(N2NC(=O)/C(=C/c3ccc(-c4ccc(Cl)c(C(=O)O)c4)o3)C2=O)cc1C` here?
A: The Potency was inconclusive: 0.058 µM [activator, full curve, poor fit].

Q: With `CN1CCN(C(=S)c2cn(CCOc3ccccc3F)c3ccccc23)CC1` as the compound, how does the Potency read?
A: The Potency was inconclusive: 16.4 µM [activator, partial curve, poor fit].

Q: With `CCc1ccc(C(O)(C(C)C)C(CN2CCOCC2)c2ccccc2)cc1` (stereo not drawn) as the compound, how does the Potency read?
A: Its Potency is inconclusive: 6.51 µM [activator, full curve, poor fit].

Q: With `CCOc1ccc2nc(N(CCCN(C)C)C(=O)c3ccc(S(=O)(=O)N4CCc5ccccc5C4)cc3)sc2c1` as the compound, how does the Potency read?
A: Its Potency is inconclusive: 32.6 µM [activator, partial curve, poor fit].

Q: For `CC(=O)c1sc2c(c1OC(=O)c1ccc(Cl)cc1Cl)c(=O)n(-c1ccccc1)c(=S)n2-c1ccccc1`, which Potency is on record?
A: Its Potency is inconclusive: 0.164 µM [activator, full curve, poor fit].

Q: With `COc1cccc(CNC(=O)COc2cc3c(c4oc(=O)cc(C)c24)CCC(C)(C)O3)c1` as the compound, how does the “activity, positive = re-replication” value read?
A: Its value is inactive: 14.6%.

Q: Which Potency does the source give for `O=c1cc(CN2CCN(c3ccccc3)CC2)c2cc(O)c(-c3ccccc3)cc2o1` here?
A: Its Potency is inconclusive: 20.6 µM [activator, single point].

Q: For `Cc1ccc(N/C=C/C(=O)c2cccs2)cc1C`, which Potency is on record?
A: The Potency was inconclusive: 29.1 µM [activator, partial curve, poor fit].

Q: Which “activity, positive = re-replication” value does the source give for `O=C(NCc1ccccc1Cl)C1CCN(C(=O)c2ccco2)CC1` here?
A: Its value is inactive: 9.11%.

Q: Which Potency does the source give for `COc1ccc2c(CN3CCN(S(=O)(=O)c4cccs4)CC3)cc(=O)oc2c1` here?
A: The Potency was inconclusive: 25.9 µM [activator, partial curve, poor fit].

Q: With `COc1ccc2sc(-c3ccc(N(C)C)cc3)c(-c3cnc(OC)nc3)c2c1` as the compound, how does the Potency read?
A: The Potency was inconclusive: 2.91 µM [activator, single point].

Q: For `Cc1ccc(-n2cnc3scc(-c4cccs4)c3c2=O)cc1`, which Potency is on record?
A: Its Potency is inconclusive: 2.59 µM [activator, single point].

Q: For `CC(C)C(=O)Nc1ccc(COc2ccccc2CN(Cc2ccccc2)C(=O)OC(C)(C)C)cc1`, which Potency is on record?
A: Its Potency is inconclusive: 2.31 µM [activator, partial curve, poor fit].

Q: With `COc1ccc(S(=O)(=O)N2CCOCC2)cc1Br` as the compound, how does the Potency read?
A: Its Potency is inconclusive: 20.6 µM [activator, single point].

Q: For `CCOc1cc(-c2c(C#N)c(N)nc3c2CCCC3)ccc1O`, which “activity, positive = re-replication” value is on record?
A: Its value is inactive: 1.39%.

Q: For `Cc1ccc(S(=O)(=O)N2CCCC2C(=O)O)s1` (stereo not drawn), which “activity, positive = re-replication” value is on record?
A: The value was inactive: -4.87%.

Q: For `COC(=O)c1onc(-c2c(Cl)cccc2Cl)c1C(=O)OC`, which “activity, positive = re-replication” value is on record?
A: The value was inactive: -17.4%.

Q: Which Potency does the source give for `Cc1cccc(C)c1NC(=O)COc1ccc2c(C)c(Cc3ccccc3)c(=O)oc2c1C` here?
A: The Potency was inconclusive: 20.6 µM [activator, partial curve, poor fit].

Q: With `COc1ccc(NC(=O)COc2ccc3c(c2)OCO3)cc1` as the compound, how does the Potency read?
A: The Potency was inconclusive: 1.46 µM [activator, full curve, poor fit].

Q: Which “activity, positive = re-replication” value does the source give for `CCOC(=O)N1CCC(N(CCN(C)C)C(=S)Nc2ccccc2Cl)CC1` here?
A: Its value is inactive: -4.72%.

Q: Which Potency does the source give for `O=c1c2ccccc2c(-c2ccc(O)cc2)nn1-c1cccc(C(F)(F)F)c1` here?
A: Its Potency is inconclusive: 16.4 µM [activator, partial curve, poor fit].

Q: For `Cc1cc(C)c2c(N)c(C(=O)c3ccccc3)oc2n1`, which Potency is on record?
A: The Potency was inconclusive: 29.1 µM [activator, single point].

Q: For `Cc1ccc(C2CC2c2n[nH]c(=S)n2-c2cccc(Cl)c2)cc1` (stereo not drawn), which Potency is on record?
A: The Potency was active: 23.1 µM.

Q: Which Potency does the source give for `c1ccc(OCCN2CCN(C(c3ccccc3)c3ccccc3)CC2)cc1` here?
A: The Potency was inconclusive: 1.16 µM [activator, single point].

Q: With `O=C(CN1C(=O)NC2(CCCCC2)C1=O)N(Cc1ccco1)Cc1cccs1` as the compound, how does the Potency read?
A: The Potency was inconclusive: 20 µM [activator, single point].

Q: Which Potency does the source give for `O=C(CN1CCCCC1)Nc1ccc(NC(=O)c2ccccc2Cl)cc1Cl` here?
A: Its Potency is inconclusive: 10.3 µM [activator, partial curve, poor fit].
